From paper PMC4336329 (PLoS ONE, 2015)
Out of some 310,000 compounds screened, about 14,000 (4.5%) showed an effect of 50% or more. Effects have a minus sign here. Some of the results follow.

Biological target: human ether-à-go-go-related gene (hERG) potassium channel (human, UniProt Q12809)
Test: primary screen, population patch clamp on CHO cells stably expressing hERG
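Note: peak tail current of the secondary pulse compared with the same well before compound.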

Sequence of human ether-à-go-go-related gene (hERG) potassium channel (Q12809 whole entry, looked up): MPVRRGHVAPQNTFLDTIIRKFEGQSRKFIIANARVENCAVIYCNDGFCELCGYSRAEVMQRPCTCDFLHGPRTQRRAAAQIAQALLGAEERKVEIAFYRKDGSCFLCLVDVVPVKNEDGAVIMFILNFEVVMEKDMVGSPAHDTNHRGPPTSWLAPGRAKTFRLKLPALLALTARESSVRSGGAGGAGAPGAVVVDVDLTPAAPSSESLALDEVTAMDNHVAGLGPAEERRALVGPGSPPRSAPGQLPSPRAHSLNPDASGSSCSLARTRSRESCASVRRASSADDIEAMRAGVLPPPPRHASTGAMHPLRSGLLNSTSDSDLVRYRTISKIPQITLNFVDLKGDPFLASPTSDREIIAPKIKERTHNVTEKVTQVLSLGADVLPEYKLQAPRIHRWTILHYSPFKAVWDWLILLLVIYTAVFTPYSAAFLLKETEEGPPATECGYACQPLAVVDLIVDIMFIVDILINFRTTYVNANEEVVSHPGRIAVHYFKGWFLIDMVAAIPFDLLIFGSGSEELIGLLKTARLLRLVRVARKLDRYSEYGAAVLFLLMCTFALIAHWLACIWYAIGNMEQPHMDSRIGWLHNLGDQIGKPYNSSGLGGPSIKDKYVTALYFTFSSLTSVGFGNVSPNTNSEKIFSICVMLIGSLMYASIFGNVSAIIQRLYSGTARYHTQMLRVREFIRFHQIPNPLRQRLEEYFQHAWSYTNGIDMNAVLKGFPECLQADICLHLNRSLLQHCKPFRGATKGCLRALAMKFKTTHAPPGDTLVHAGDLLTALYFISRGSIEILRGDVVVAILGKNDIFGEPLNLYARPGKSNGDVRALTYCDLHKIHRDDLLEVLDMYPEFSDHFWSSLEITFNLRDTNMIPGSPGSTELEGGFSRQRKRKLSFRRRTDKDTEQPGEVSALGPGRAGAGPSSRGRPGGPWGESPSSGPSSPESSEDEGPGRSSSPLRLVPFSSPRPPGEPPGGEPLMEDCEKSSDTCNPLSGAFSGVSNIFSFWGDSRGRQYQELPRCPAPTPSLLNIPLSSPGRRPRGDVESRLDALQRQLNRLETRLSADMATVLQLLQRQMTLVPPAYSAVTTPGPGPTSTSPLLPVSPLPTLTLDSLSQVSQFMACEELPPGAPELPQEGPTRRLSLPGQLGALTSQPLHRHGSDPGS

| Compound | hERG current change (%, negative = inhibition) at 10uM [%] |
| --- | --- |
| c1ccc(COCCC2CO2)cc1 (stereo not shown) | 5.49 |
| O=C(Nc1ccon1)C(Sc1ccccc1)c1ccccc1 (stereo not shown) | -8.32 |
| O=C(/C=C/c1ccccc1)c1ccc2c(c1)OCO2 | -5.68 |
| COC(=O)c1ccc(NC(=S)NCC2CC2)cc1 | 17.4 |
| CCN1CCN(C(=O)/C=C/c2ccc([N+](=O)[O-])cc2)CC1 | -64.2 |
| COCc1nnc(NC(=O)c2c(-c3c(Cl)cccc3Cl)noc2C)s1 | 10.5 |
| COc1cc(C(=O)OCC(C)=O)c([N+](=O)[O-])cc1OC | 16.1 |
| O=C(CNC(=O)c1ccccc1Br)N/N=C/c1cccs1 | 4.8 |
| CC(OC(=O)c1ccc(OCC2CCCO2)cc1)C(=O)N(C)Cc1ccccc1 (stereo not shown) | -14.5 |
| Cc1nc2c(nnn2Cc2ccccc2)c(=O)[nH]1 | 14.3 |
| CC(C)c1ccc2c(c1)c(SC(C)(C)C)c(CC(C)(C)C(=O)O)n2Cc1ccc(Cl)cc1 | 2.82 |
| COc1cc(NS(=O)(=O)c2ccc(NC(=O)C34CC5CC(CC(C5)C3)C4)cc2)ncn1 | -4.59 |
| COC(=O)c1sccc1-n1cccc1C(=O)C(=O)N1CC(C)OC(C)C1 (stereo not shown) | 20.9 |
| O=C1N(c2ccccc2)c2ccccc2C1(O)C(F)(F)F (stereo not shown) | 4.2 |
| CC(=O)C1(C)N(O)C(C)(C)C(c2cccs2)=[N+]1[O-] (stereo not shown) | 18.2 |
| CCN(CC)Cc1cc(CC(C(N)=O)C(N)=O)ccc1OC | 8.16 |
| O=C(COC(=O)c1ccccc1)NCc1cccs1 | 21 |
| COc1cc(Cl)c(C)cc1NC(=O)CSC | -4.31 |
| CCN(CC)C(=O)c1ccc(CS(=O)(=O)c2ccc(OC)cc2)o1 | -0.122 |
| N#C/C(=C\N1CCOCC1)c1ccccc1 | -24.7 |
| CCCSC1C(C)=C(C)C(=O)N1Cc1ccccc1 (stereo not shown) | 3.05 |
| Cc1nc(NC(=O)c2ccc3c(c2)OCCO3)ccc1Br | 0.941 |

| Compound | hERG current change (%, negative = inhibition) at 10uM [%] |
| --- | --- |
| COc1ccccc1C(=O)n1nc(-c2cccnc2)nc1N | 8.11 |
| COc1ccc(C(=O)Nn2c(SCC(=O)NC3CCCCC3)nc3ccccc3c2=O)cc1 | 0.473 |
| COc1ccc(C(=O)NCCc2nnc(SCC(=O)Nc3ccccc3C(C)C)n2C)cc1 | -13.3 |
| COc1ccc(-c2c3c(nc4sc5c(=O)[nH]c(C)nc5c24)CCC3)cc1 | 8.4 |
| COc1ccc(C(=O)O/N=C2\C(=O)N(C)c3ccccc32)cc1 | -9.98 |
| CN(CC(=O)Nc1ccc(Cl)cc1)C(=O)c1ccc(S(=O)(=O)Nc2ccccc2)cc1 | -9.55 |
| CC(C)(C)C(=O)NC(NC(=O)C(C)(C)C)c1ccc([N+](=O)[O-])cc1 | 8.18 |
| O=C(NC(=O)N1CCN(c2cccc(Cl)c2)CC1)c1ccc(Cl)cc1 | -44.3 |
| S=C(Nc1ccc(Cl)cc1)N1CCCCC1 | 4.69 |
| Cc1nn(C)cc1CN(C)C(=O)c1nn2c(c1Br)NC(c1cccs1)CC2C(F)(F)F (stereo not shown) | -18.3 |
| CC(c1ccc(Cl)cc1)n1c(-c2ccc3ccccc3n2)n[nH]c1=S (stereo not shown) | 19 |
| Cc1onc(-c2c(F)cccc2Cl)c1C(=O)N1CCSCC1 | 17.5 |
| O=C(O)C1=C(C(=O)N2CCN(C(=O)c3ccco3)CC2)CCCC1 | 1.67 |
| O=C(Cn1nc(Cc2cccnc2)c2ccccc2c1=O)N1CCN(c2ccccn2)CC1 | -23.1 |
| O=C(O)c1ccc(NC(=S)N2CCCCC2)cc1 | 19.8 |
| Cc1ccn2c(CNCC3OCCc4ccccc43)c(C(=O)N3CCCCCC3)nc2c1 (stereo not shown) | -62.9 |
| COc1ccc(C(=O)NCC(=O)OCC(=O)c2ccc3c(c2)OCCO3)cc1 | -5.36 |
| O=C(COC(=O)c1cc(=O)[nH]c2ccccc12)NC(=O)NC1CCCCC1 | -3.63 |
| CCN(CC)C(=O)CCc1nnc(Cc2cccc(C(F)(F)F)c2)o1 | 11.5 |
| COc1ccccc1NC(=O)NC1CCS(=O)(=O)C1 (stereo not shown) | 16.2 |
| COc1ccc(CNC(=O)CN2CCN(C(c3ccccc3)c3ccccc3)CC2)cc1 | 10.3 |
| O=C1c2ccccc2NC(c2ccccn2)N1c1ccccc1F (stereo not shown) | 10.9 |

| Compound | hERG current change (%, negative = inhibition) at 10uM [%] |
| --- | --- |
| O.O=C1NC2(O)C(=O)c3ccccc3C2(O)N1 (stereo not shown) | 11 |
| Cn1cccc1CC(=O)NNC(=S)Nc1ccc(F)cc1 | 5.91 |
| O=C(CNC(=O)c1ccco1)NCC(=O)OCc1ccc(Cl)cc1 | -11.1 |
| COc1ccc2c(=O)c3c(=O)n(-c4ccccc4)c(-c4ccc(C)cc4)nc3oc2c1 | 11.3 |
| CN(CC(=O)Nc1ccc(F)c(F)c1F)C(=O)CCCc1nc2ccccc2c(=O)[nH]1 | -20.6 |
| Cc1cc(C)c(C)c(S(=O)(=O)NCC(=O)Nc2sc3c(c2C(N)=O)CCCC3)c1C | 25.4 |
| Cc1nc(C)c(C(=O)O)s1 | 18.8 |
| COc1ccc(S(=O)(=O)Nc2ccc(S(=O)(=O)Nc3nccs3)cc2)cc1 | 19.9 |
| Cc1cc(C)nc(N2CCN(c3nnnn3-c3ccccc3)CC2)n1 | 9.05 |
| CCC(C)(C)NC(=O)CN(CC1CCCO1)C(=O)CCC(=O)Nc1nccs1 (stereo not shown) | 7.52 |
| O=C(CSc1nnc(CNC(=O)c2cccs2)o1)NCc1ccc(F)cc1 | -11.2 |
| COc1cc(NC(=O)Cc2ccccc2)c(C(=O)O)cc1OC | 14.2 |
| CCOC(=O)C1CCN(C2=NC(=O)/C(=C/c3ccccc3OC)S2)CC1 | -22.9 |
| Cc1noc(C)c1COc1cccc(C(=O)NCc2ccccc2Cl)c1 | -11.3 |
| CC1CC(C)CN(C(=O)c2cc3c(=O)n4ccccc4nc3s2)C1 (stereo not shown) | -27 |
| CCOC(=O)C1=CC[C@H]2c3c(c4ccc(OC)cc4n3C)C(=O)C1N2S(=O)(=O)c1ccc(C)cc1 | -15.6 |
| O=C(N/N=C/c1cc2ccccc2nc1Cl)[C@H]1C[C@@H]1c1ccccc1 | 2.36 |
| COc1ccc2c(c1)/C(=C/c1cnc[nH]1)C(=O)N2 | 1.23 |
| CC1=C(C)CC(C(=O)NNC(=O)c2ccccc2O)C(C(=O)O)C1 (stereo not shown) | 7.38 |
| Cc1nn(CC(=O)N(C)C2CCS(=O)(=O)C2)c(C)c1[N+](=O)[O-] (stereo not shown) | 19.3 |
| COc1cccc(CN(Cc2ccccc2F)S(=O)(=O)c2ccc(S(=O)(=O)NCc3ccccc3)cc2)c1 | 28 |
| Br.CC1CN2C(c3ccc(Cl)cc3)=CSC2=N1 (stereo not shown) | -33.5 |

| Compound | hERG current change (%, negative = inhibition) at 10uM [%] |
| --- | --- |
| Cc1nc(N2CCN(S(=O)(=O)c3ccc(Br)cc3)CC2)c2c(C)c(C)sc2n1 | -10.7 |
| CC1CCCC(C)N1C(=O)c1cc(-c2ccc(Cl)c(Cl)c2)on1 (stereo not shown) | -2.64 |
| Cc1ccc(S(=O)(=O)NCCC(=O)Nc2ccc(C)c(Cl)c2)cc1C | -1.46 |
| Cc1ccc(S(=O)(=O)Nc2ccccc2/C=N/c2nc3ccccc3n2C)cc1 | -13.5 |
| COc1ccc(C(=O)N2CCCC(Nc3ccc(C)c(C)c3)C2)cc1 (stereo not shown) | -12.5 |
| COc1ccc(-c2nc(CN3CCCCC3CCc3ccccn3)c(C)o2)cc1 (stereo not shown) | -90.7 |
| O=C(COc1ccccc1)NC1CCSc2ccccc21 (stereo not shown) | 0.0355 |
| COc1cccc(Oc2cnc(N)nc2-c2ccc(OC)cc2O)c1 | -29 |
| CC(C(=O)Nc1cc([N+](=O)[O-])ccc1Cl)N1CCN(c2ccc(O)cc2)CC1 (stereo not shown) | -13.3 |
| COCCn1cnnc1SCC(=O)Nc1ccccc1C(=O)Nc1ccc2c(c1)OCO2 | 13.5 |
| COc1ccc(-c2noc(CCC(=O)Nc3cc(Cl)c(OC)cc3OC)n2)cc1 | 6.64 |
| CC(=O)N(CN1C(=O)c2ccc([N+](=O)[O-])cc2C1=O)c1cccc(C(=O)O)c1 | 12.7 |
| COC(=O)CCCC1=CC2=CC(=O)C(C)(OC(=O)c3cccs3)C(=O)C2=CN1C1CCCC1 (stereo not shown) | -5.91 |
| CN1CCN(C(CC(=O)Nc2cccc(O)c2)C(=O)O)CC1 (stereo not shown) | 0.38 |
| Cc1c(NC(=O)c2cc3ccccc3o2)c(=O)n(-c2ccccc2)n1C | -2.23 |
| Cc1ccc(CN(C)C(=O)CCc2nc3sc4c(c3c(=O)[nH]2)CCCC4)o1 | 3.28 |
| CCn1c(SCC(=O)N2CCCCC2C)nnc1-c1ccc(S(=O)(=O)N2CCN(C)CC2)cc1 (stereo not shown) | -6.68 |
| CC(=S)c1c(C)cc2cc(C)ccn12 | 15.9 |
| Cc1ccccc1C(=O)N1CCC(C(=O)N2CCN(S(=O)(=O)c3ccccc3F)CC2)CC1 | 20.8 |
| O=C(CN1C(=O)CC(c2ccccc2)S(=O)(=O)c2ccccc21)NC1CCCC1 (stereo not shown) | -15.9 |
| CCC(=O)n1nc(-c2ccc(OC)cc2)nc1N | -1.79 |
| Cc1cc(/C=N/NC(=O)COc2cccc3cccnc23)c(C)n1-c1ccc(O)cc1 | 0.881 |
